Measured values reported in PubChem BioAssay AID1347073 (National Center for Advancing Translational Sciences (NCATS), 2019).
About 200 (0.44%) of roughly 45,000 compounds were called active. Roughly 7% stayed inconclusive and do not appear here. Calls follow the shape of the dose curve; as a rule, active = well fitted activation curve with a large enough effect; inconclusive = small, poorly fitted or top-dose-only effect; inactive = no such curve, though single readings can be large or run the other way. The list shows a part of the results.

Experiment: qHTS of TDP-43 Inhibitors: NCGC Sytravon Library Screen; also: 0% is about no effect; nearly all actives have a fitted effect of over 55% in size
Settings: yeast TDP-43 toxicity rescue, BacTiter-Glo growth, 24 h; series mostly up to 46.1 µM; growth rescue (activation): at the top concentration
Summary of the method: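 TDP-43-expressing yeast, pregrown in raffinose, seeded at OD600 0.02 in galactose medium with compound for 24 hr at 30 deg C. Growth read by BacTiter-Glo luminescence, so rescue of toxicity appears as activation.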

Row | Structure (SMILES) | growth rescue (activation)
1 | Cc1cc(=O)oc2cc(NC(=S)NNC(=O)c3c(Cl)cnn3C)ccc12 | inactive: 4.13%
2 | Cn1c(N)c(C(=O)COC(=O)c2cccc(S(=O)(=O)N3CCCCC3)c2)c(=O)n(C)c1=O | inactive: -3.61%
3 | Cc1ccc(CNC(=S)Nc2cc(C(=O)O)ccc2C)cc1 | inactive: -3.1%
4 | COC(=O)c1ccc(NC(=S)NCCc2ccc(OC)cc2)cc1 | inactive: -10.1%
5 | COc1ccc(C(C)(C)C)cc1NC(=O)c1ccc[n+]([O-])c1 | inactive: 12.5%
6 | COc1cc2c(cc1OC)CC(C(=O)NCc1ccccc1)NC2 (stereo unspecified) | inactive: 8.96%
7 | CC(C)N=C1NN=C(c2cccs2)C(CC(=O)O)S1 (stereo unspecified) | inactive: 10.1%
8 | Cc1cccc(NC(=O)CSc2ncnc3sc(C)cc23)c1 | inactive: -0.213%
9 | Cc1ccccc1NS(=O)(=O)c1ccc(C(=O)OCC(=O)NCC(C)C)cc1 | inactive: 18.6%
10 | CCN(CC)S(=O)(=O)c1ccc(Cl)c(NC(C)=O)c1 | inactive: -6.5%
11 | COCc1cc(CN2CCCC(CNC(=O)c3ccc(F)cc3)C2)ccc1OC (stereo unspecified) | inactive: 8.56%
12 | CCc1c(C)nc(N)c(C#N)c1-c1ccccc1 | inactive: 6.79%
13 | CCc1sc(C(=O)Nc2ccc(N3CCOCC3)cc2)cc1C | inactive: 25.3%
14 | CCOc1ccc(-c2noc(-c3cccnc3)n2)cc1OC | inactive: 22.1%
15 | CC1(C(=O)Nc2cccc(C#N)c2)CCN1C(=O)CCc1ccccc1 (stereo unspecified) | inactive: 18%
16 | Cc1nn(C)cc1/C=C/C(=O)c1ccc(O)cc1 | inactive: 8.1%
17 | O=C(NCC(=O)N(CCN1CCOCC1)C(C(=O)NC1CCCC1)c1cccnc1)c1cccs1 (stereo unspecified) | inactive: 14.6%
18 | Cc1nn(Cc2c(Cl)cccc2Cl)c(Cl)c1/C=N/NC(=O)c1cccnc1 | inactive: 3.54%
19 | COc1ccc(-c2nc(NC3=NCCCCC3)sc2C)cc1 | inactive: -7.02%

Row | Structure (SMILES) | growth rescue (activation)
20 | O=Cc1ccccc1Oc1nc(N2CCOCC2)nc(N2CCOCC2)n1 | inactive: -4.39%
21 | CC(=O)Nc1cnc(/C=C\CCCO)cn1 | inactive: 1.97%
22 | COc1ccc2[nH]c(C(=O)N3CCNCC3)cc2c1OC | inactive: -2.04%
23 | CC(C(=O)NCc1ccccn1)c1ccc([N+](=O)[O-])cc1 (stereo unspecified) | inactive: 2.55%
24 | Cc1cc(C)c2[nH]c(O)c(N=Nc3ccc(C(=O)O)cc3)c2c1 | inactive: -7.62%
25 | COc1ccccc1-n1nnnc1SCC(=O)NC1CCCCC1 | inactive: 10.2%
26 | CSc1ccc(/C=N/N2CCN(Cc3ccccc3)CC2)cc1 | inactive: 1.12%
27 | CC1CN(S(=O)(=O)c2ccccc2)CN1C(=O)N1CCOCC1 (stereo unspecified) | inactive: 4.77%
28 | COc1cc(/C=C/C(=O)OCC(=O)NC(=O)NC(C)C)cc(OC)c1OC | inactive: -5.44%
29 | Cc1cccc(C)c1NC(=O)CCn1cnc2ccccc2c1=O | inactive: 4.13%
30 | COc1ccc(CNC(c2ccccc2)c2ccc(Cl)cc2)cc1 (stereo unspecified) | inactive: 7.12%
31 | CC(=O)C1CCCN(C(=O)c2ccc3nc(Cc4cccc(Cl)c4)oc3c2)C1 (stereo unspecified) | inactive: 14.7%
32 | O=C(COc1ccc(C(=O)c2ccccc2)cc1)Nc1cccnc1 | inactive: 5.92%
33 | Cc1ccc(C)c(Cn2ncc3ccccc32)c1 | inactive: 26.6%
34 | COc1ccc(NC(=O)C(c2ccccc2)N(C)C(=O)c2ccc(=O)[nH]c2)cc1 (stereo unspecified) | inactive: 16.9%
35 | CN(CC(=O)Nc1cccc(S(=O)(=O)N2CCCC2)c1)Cc1ccccc1 | inactive: 29.7%
36 | COc1ccc(OC)c(C(C(=O)NC2CCCCC2)N(C(=O)c2ccccn2)c2cccnc2)c1 (stereo unspecified) | inactive: -1.45%
37 | O=C(Nc1ccccc1F)N(Cc1ccc(F)cc1)Cc1nc2ccccc2c(=O)[nH]1 | inactive: -9.99%
38 | O=c1c2cnn(-c3ccccc3)c2ncn1Cc1ccccn1 | inactive: 24.8%

Row | Structure (SMILES) | growth rescue (activation)
39 | Cc1ccc(NC(=O)c2ccc(Br)o2)c([N+](=O)[O-])c1 | inactive: -2.03%
40 | O=C(COC(=O)c1ccccc1OCc1ccc(Cl)cc1)NCC1CCCO1 (stereo unspecified) | inactive: 18.1%
41 | Cc1ccccc1NC(=O)Nc1cccs1 | inactive: 17.7%
42 | CCCCN(C)C(=O)Cn1cnc2sc(C)c(S(=O)(=O)N3CCN(c4ccccc4OC)CC3)c2c1=O | inactive: -3.19%
43 | CCn1nnc(NC(=O)c2c(OC)cccc2OC)n1 | inactive: 25.8%
44 | Cc1ccc(OCC(=O)N(Cc2sccc2C)C2CCS(=O)(=O)C2)cc1 (stereo unspecified) | inactive: 7.26%
45 | COc1ccc(-c2csc(C3=C(O)CN(Cc4ccc(S(N)(=O)=O)cc4)C3=N)n2)cc1OC | inactive: 20.1%
46 | COc1ccc(/C=C/C(=O)c2ccc(O)cc2)cc1CN1CCOCC1 | inactive: -14.6%
47 | COc1ccc(CCN2CC(C(=O)NCC3(O)CCCCC3)CCC2=O)cc1 (stereo unspecified) | inactive: 6.21%
48 | O=C(COC(=O)CC(c1ccccc1)c1ccccc1)Nc1cccc(F)c1 | inactive: 22.7%
49 | NS(=O)(=O)c1ccc(CCNC(=O)COC(=O)CCc2ccccc2)cc1 | inactive: 10.3%
50 | CCCCn1c(=O)c(CCC(=O)OCC(=O)NC(=O)NCCOC)nc2ccccc21 | inactive: 12.6%
51 | CCN(c1ccccc1)S(=O)(=O)c1ccc(OC)c(NC(=O)c2c(C)noc2C)c1 | inactive: 10.7%
52 | CC(=O)Nc1ccc(SCC(=O)OCC(=O)NC(=O)NCCC(C)C)cc1 | inactive: -2.36%
53 | CC(C)CCNC(=O)C(=O)NC1CCCC1 | inactive: -10.6%
54 | CC1=C(C(=O)OCc2ccccc2)C(/C=C/c2ccccc2)NC(=S)N1 (stereo unspecified) | inactive: -3.95%
55 | O=C(O)c1ccc2nc(-c3ccco3)c(-c3ccco3)nc2c1 | inactive: 11%
56 | CC(C)(CN1CCN(c2ccccc2)CC1)NS(=O)(=O)c1ccccc1 | inactive: 13.1%
